Read counts are not given, so values of variants with three or more changes are uncertain.
B1: CPEB3 Ribozyme (parent)
chain: UAACAGGGGGCCACAGCAGAAGCGUUCACGUCGCAGCCCCUGUCAGAUUCUGGUGAAUCUGCGAAUUCUGCUGUAUAUCUC

Variants of: B1
Assay: self-cleavage, relative activity (ratio to wild type); higher = more cleavage; in vitro, sequencing
Procedure, shortened: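 CPEB3 self-cleaving ribozyme mutant libraries were made by rounds of error-prone PCR, barcoded, and transcribed in vitro with T7 RNA polymerase for 5 hours at 37°C. Cleavage occurred during transcription and a 15 min DNase I step before EDTA stop. RNAs were reverse transcribed with template switching and Illumina-sequenced, with DNA sequencing mapping barcodes to variants. Relative activity is the variant's cleaved/total read fraction divided by wild type's (minimum 5 reads), averaged across three batches.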

Variant | self-cleavage
UAACAGGGGGCCACAGCAGAAGCGUACACGACGCAGUCCCUGUCAGAUUCUGGUGAAUCUGCGUAUUCUCCUGUAUACCUC | 0.05
UAACAGGGGGCCACAGCAGAAGCGUACACGACGCAGCCCUUGUCAGAUUCUGGUGAAACUGCGAAUUCUGCGGUAUAUCUC | 0.17
UAACAGGGGGCCACAGCAGAAGCGUACACGACGCAGCCCCCGUCAGAUUCUGGUGAAUCUGCGAAUUCUGCUGUAUAUCUC | 0.32
UAACAGGGGGCCACAGCAGAAGCGUACACGACGCAGCCCCUGCCAGAUUCUGGUCAGUCUGCGAAUUCUGCUGUAUAUCUC | 0.12
UAACAGGGGGCCACAGCAGAAGCGUACACGCCGCUGCCCCUGUCCGAUUCUGGUGAAUCUGCGAAUUCUGCUGUAUAUCUC | 0.15
UAACAGGGGGCCACAGCAGAAGCGUACACGCCGCUGCCCCUGCCAGAUUCUGGUGAAUCUGCGAAUUCUGCUGUAUAUCUC | 0.38
UAACAGGGGGCCACAGCAGAAGCGUACACGCCGCAGCCCCUGUCAGAUUCUGGUGAAUCUGCCAAUUCUGCUGUAUAUCUC | 0.51
UAACAGGGGGCCACAGCAGAAGCGUACACGCCGCAGCCCCCGUCAGAUUCUGGUGAAUCUGCGAGUUCUGCUCUAUACCUC | 0.07
UAACAGGGGGCCACAGCAGAAGCGUACACGCCGCAGCCCCUGGCAGAUUCCGGUGAAUCCGCGAAUUCUGCUGUAUAUCUC | 0.07
UAACAGGGGGCCACAGCAGAAGCGUACACGCCGCAGCCCCUGUCAGAUUCUGGUGAAUCUGCGAAUUCUGCAGUAUAUCUC | 0.56
UAACAGGGGGCCACAGCAGAAGCGUACACGUCGCAGCCCCAGUCGGAUUCUGGUGAAUCAGCGAAUUCUGCUGUAUAUCUC | 0.23
UAACAGGGGGCCACAGCAGAAGCGUACACGUCGCAGCCCCAGUCAGAUUCUGGUGAAUCUGUGGAUUCUGCUGUAUAUCUC | 0.15
UAACAGGGGGCCACAGCAGAAGCGUACACGUCGCAGCCCCAGGUAGGUUCUGGAGAAUCUGCGAAUUCUGCUGUAUAUCUC | 0.27
UAACAGGGGGCCACAGCAGAAGCGUACACGUCGCAGCCCCAGUCAGAUACUGGUGAGUCUGCGAGUUCUGCUGUAUAUCAC | 0.05
UAACAGGGGGCCACAGCAGAAGCGUACACGUCGCAGCCCCCGUCUGACUCUGGUGGAUCUGCGAAUUCUGCUGUAUAUCUC | 0.08
UAACAGGGGGCCACAGCAGAAGCGUACACGUCGCAGCCCCCGUCAGGUUCUGGUGAGUCUGCGAAUUCUGCAGUAUACCUC | 0.29
UAACAGGGGGCCACAGCAGAAGCGUACACGUCGCAGCCCCCGUCAGAUCCUGGUGUAUCUGCGAAUUCUGCUGUUUAUCUC | 0.21

Variant | self-cleavage
UAACAGGGGGCCACAGCAGAAGCGUACACGUCGCAGCCCCCGUCAGAUUCCGGUGAGUCUGCGAAUUCUGCUGUAUAUCUC | 0.35
UAACAGGGGGCCACAGCAGAAGCGUACACGUCGCAGCCCCCGUCAGAUUCUGGCGAAUCUGCGAAUCCUGCUGUAUAUCUC | 0.14
UAACAGGGGGCCACAGCAGAAGCGUACACGUCGCAGCCCCCGUCAGAUUCUGGUGAAUCUGCGAAUUCUGCGGUAUAUCUC | 0.39
UAACAGGGGGCCACAGCAGAAGCGUACACGUCGCAGCCCCGGUCAGAUUCUGCUGAAUCUGCGAAUUCUGCCGUAUAUCUC | 0.08
UAACAGGGGGCCACAGCAGAAGCGUACACGUCGCAGCCCCUGACGGAUUCUGGUGAAUGUGCGAAUUCUGCUGUAUAUCUC | 0.11
UAACAGGGGGCCACAGCAGAAGCGUACACGUCGCAGCCCCUGACAGAUCCUGGUGAAUCUGCGAAUUCUGCUGGAUAUCUC | 0.22
UAACAGGGGGCCACAGCAGAAGCGUACACGUCGCAGCCCCUGCCAGUUUCUGGUGGAUCUGCGAAUUCUGCUGUAUAUCUC | 0.1
UAACAGGGGGCCACAGCAGAAGCGUACACGUCGCAGCCCCUGCCAGAUUCUGGCGAAUCAGCGGAUUCUGCUGUAUAUCUC | 0.06
UAACAGGGGGCCACAGCAGAAGCGUACACGUCGCAGCCCCUGUCAGAAACUGGUGGAUCCGCGAAUCCUCCUGUAUAUCUC | 0.05
UAACAGGGGGCCACAGCAGAAGCGUACACGUCGCAGCCCCUGUCAGAAUCUGGUGAAUCUGCGAAUUCUGCUGUAUACCUC | 0.17
UAACAGGGGGCCACAGCAGAAGCGUACACGUCGCAGCCCCUGUCAGACCCUGGUGAAUCUGCGAAUUCUGCUGUAUAUCUC | 0.13
UAACAGGGGGCCACAGCAGAAGCGUACACGUCGCAGCCCCUGUCAGAUCCUGGUGAAUCUGCGAGUUCUGCUGUAUAUCUC | 0.07
UAACAGGGGGCCACAGCAGAAGCGUACACGUCGCAGCCCCUGUCAGAUCCUGGUGAAUCUGCGAUUUCUGCUGUUUAUCUC | 0.12
UAACAGGGGGCCACAGCAGAAGCGUACACGUCGCAGCCCCUGUCAGAUCCUGGUGAAUCUGCGAAUUCAGCUGCACAUCUC | 0.1
UAACAGGGGGCCACAGCAGAAGCGUACACGUCGCAGCCCCUGUCAGAUUCCGGUGAAUCUGCGAAUUCUGCCGUAUAUCUC | 0.74
UAACAGGGGGCCACAGCAGAAGCGUACACGUCGCAGCCCCUGUCAGAUUCUGGAGAAUCCGCGAAUUCUGCUGUAUAUCUC | 0.43
UAACAGGGGGCCACAGCAGAAGCGUACACGUCGCAGCCCCUGUCAGAUUCUGGCGAAUCUGCGAGUUCUGCUGUAUAUCUC | 0.21

From the RNAGym collection of RNA variant scans (doi:10.1093/nar/gkz1192)
